# PubChem BioAssay AID445 (National Center for Advancing Translational Sciences (NCATS), 2006)
# The whole screen tested about 110,000 compounds, of which about 40 (0.04%) were called active. The shares of active, inactive and inconclusive entries below differ from those in the screen. Calls follow the shape of the dose curve; as a rule, active = well fitted curve in the direction sought with a large enough effect in the signal ratio (not every such curve was filed as active); inconclusive = small, poorly fitted or top-dose-only effect, or a change in a side signal; inactive = flat fitted curve, though single readings scatter; the % refers to the signal ratio. A potency beside an inconclusive call is a rough fit, not a confirmed value.
# Assay: IkB Signaling;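 as to IkBa stabilization activation: 0% = basal untreated cells and 100% = reference inhibitor full response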
# Conditions: ABC-DLBCL IkBa-CBG/CBR dual luciferase ratio (green luciferase fused to IkBa over red control in OCI-Ly3 lymphoma cells), 4 h; IkBa stabilization activation: at 57.1 µM (top of the series), scaled: untreated 0%, proteasome inhibitor 100% unless noted
# How it was run: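 In this assay, an IκBα–CBG68 fusion accumulates when IKK-driven degradation is blocked; native CBR normalizes for cell number. OCI-Ly3 cells were treated 4 h with compound and doxycycline, then green and red light read after Chroma-Glo addition.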
# Potency is read from the fitted curve at half-maximal effect.
SMILES,IkBa stabilization activation,Potency
Nc1ncnc2c1ncn2[C@H]1O[C@@H](CO)[C@@H](O)[C@H]1N,"inactive: -0.506% [at 11.4 µM, scaled: untreated 0%, proteasome inhibitor 100%]",–
Cc1cc(=O)[nH]c(SCC(=O)N2CCCCCC2)n1,inactive: 0.121%,–
COc1ccc(N2CCN(Cc3nc4c(c(=O)n(C)c(=O)n4C)n3Cc3ccccc3C)CC2)cc1,inactive: 0.972%,–
COc1ccccc1CNC(=O)CCCn1c(=O)c2ccccc2n(Cc2ccc(F)cc2)c1=O,inconclusive: 0.804% [signal inhibitor],–
COc1ccccc1Nc1nc(-c2ccc(F)cc2)c2c(n1)-c1ccccc1OC2,inconclusive: 0.372% [signal inhibitor],–
COc1ccccc1NC(=O)c1c(C)cc(C)nc1SCC(=O)Nc1ccc(C)c(C)c1,inconclusive: 0.96% [signal inhibitor],–
Cc1ccc(NC(=O)Nc2cccc(C)n2)cc1,inactive: 11.8%,–
O=C(Nc1cccc(-c2nc3cccnc3s2)c1)c1ccco1,inconclusive: -0.473% [signal inhibitor],–
COc1ccc(C)cc1NC(=O)Cn1c(=O)oc2cc(S(=O)(=O)N3CCCCC3)ccc21,inconclusive: 0.681% [signal inhibitor],–
Cc1ccc(Nc2ccc3cc(S(=O)(=O)N4CCCCC4)ccc3n2)cc1F,inconclusive: 2.11% [signal inhibitor],–
Clc1ccc2c(N3CCC(CCC4CCN(c5ncnc6cc(Cl)ccc56)CC4)CC3)ncnc2c1,"inactive: -0.619% [at 11.4 µM, scaled: untreated 0%, proteasome inhibitor 100%]",–
CCOC(=O)c1ccc(NC(=O)CSc2nc(-c3ccc(OC)cc3)cc(C(F)(F)F)c2C#N)cc1,inactive: 6.49%,–
Cc1nn(-c2ccccc2)c2sc(C(=O)N(Cc3ccco3)C(C)C(=O)NC(C)(C)C)cc12 (stereo unspecified),inconclusive: 2.89% [signal inhibitor],–
CCn1cc2nc(SCC(=O)Nc3ccc(OC)c(Cl)c3)n(Cc3ccc(OC)cc3)c(=O)c2n1,inconclusive: 5% [signal inhibitor],–
COc1ccc(-c2cc3nc(C)c(CCC(=O)NCc4ccccc4Cl)c(C)n3n2)c(OC)c1,–,inconclusive: 12.6 µM [signal inhibitor]
CC(=O)c1ccc(NC(=O)c2cn(-c3ccccc3)nc2-c2ccc(Br)cc2)cc1,inconclusive: 9.57% [signal inhibitor],–
Cc1ccccc1-c1nc(NCCN2CCOCC2)c2ccccc2n1,"inactive: 3.21% [at 11.4 µM, scaled: untreated 0%, proteasome inhibitor 100%]",–
O=C(CCC1CCCC1)N1CCc2c([nH]c3ccccc23)C1c1ccc(F)cc1 (stereo unspecified),inconclusive: 0.71% [signal inhibitor],–
O=C(NCc1ccc2c(c1)OCO2)c1ccccn1,inactive: 0.286%,–
CCOc1ccc(NC(=O)NCCN2CCN(c3cccc(C)c3C)CC2)cc1,inconclusive: 7.79% [signal inhibitor],–
CCc1cccc(C)c1NC(=O)C1CCN(S(=O)(=O)c2c(C)noc2/C=C/c2c(C)cc(C)cc2C)CC1,inconclusive: 0.435% [signal inhibitor],–
N#Cc1nc(COc2ccccc2Cl)oc1NCCc1ccccc1,–,"inconclusive: 39.8 µM [signal inhibitor, single point]"

SMILES,IkBa stabilization activation,Potency
Cc1ccc(C)c(-n2c(N)c(C#N)c3nc4ccccc4nc32)c1,–,"inconclusive: 15.8 µM [signal inhibitor, partial curve]"
COc1cc(C2C(=O)N(C3CCCCCC3)CC(=O)N2CCc2ccccc2)ccc1OC(C)C (stereo unspecified),inactive: -3.06%,–
c1csc(CNc2ncncc2-c2ccc3c(c2)OCO3)c1,"inactive: 1.48% [at 11.4 µM, scaled: untreated 0%, proteasome inhibitor 100%]",–
COc1cccc(CNc2cc(C)nc3nc(-c4ccc(C)cc4)nn23)c1,inconclusive: 4.52% [signal inhibitor],–
COCCn1c(=O)c(-c2ccccc2)nc2cnc(Oc3ccc(OC)cc3)nc21,"inactive: -0.94% [at 11.4 µM, scaled: untreated 0%, proteasome inhibitor 100%]",–
COc1ccc(C2c3c(n(C)c4ccccc34)C(=O)N2CC(=O)Nc2cccc(F)c2)cc1 (stereo unspecified),inconclusive: 0.903% [signal inhibitor],–
Cc1ccc(N2CC(C)Cn3c2nc2c3c(=O)n(Cc3cccc(Cl)c3)c(=O)n2C)cc1 (stereo unspecified),inconclusive: 2.77% [signal inhibitor],–
COc1ccc(NC(=O)c2oc3ccc(S(=O)(=O)N4CCOCC4)cc3c2C)cc1,inconclusive: 2.33% [signal inhibitor],–
O=c1oc2ccc3ccccc3c2cc1-c1nnc(Nc2ccc(F)cc2)s1,inactive: -1.8%,–
CCCc1cc(=O)[nH]c2nnc(SCC)n12,inconclusive: -1.56% [signal inhibitor],–
O=C(c1cccn1-c1nnc(N2CCCC2)s1)N1CCN(c2ccc(Cl)cc2)CC1,inactive: -1.57%,–
COc1cc(C2Nc3c(C)cc(C)cc3-c3cc(C)nn32)cc(OC)c1O (stereo unspecified),inconclusive: 0.456% [signal inhibitor],–
CCCS(=O)(=O)NCCc1sc2nc(-c3ccc(F)cc3)nn2c1C,inconclusive: 11.9% [signal inhibitor],–
COC(=O)c1ccc(CSc2ccc3nnc(-c4ccc(OC)c(OC)c4)n3n2)o1,inactive: -0.994%,–
Cc1cc(C)n(-c2nnc(Nc3ccc(C)c(Cl)c3)c3ccccc23)n1,inconclusive: 7.38% [signal inhibitor],–
Cn1c(=O)[nH]c2cc(-c3noc(-c4ccc(C#N)cc4)n3)ccc21,inactive: -0.62%,–
COc1ccc(C2=NC(C)(C)N(CC(=O)Nc3cccc(C)c3)C2=O)cc1,inconclusive: 7.51% [signal inhibitor],–
COc1ccc(Cn2c(C(=O)O)c(CNCCc3cc(OC)ccc3OC)c3ccc(C)cc32)cc1,inconclusive: -0.426% [signal inhibitor],–
CC(=O)Nc1ccc(S(=O)(=O)NCC2CCC(C(=O)NCCN(CC(C)C)CC(C)C)CC2)cc1 (stereo unspecified),inactive: -0.575%,–
CN(C)C(=O)c1c(NC(=O)c2ccccc2F)sc2c1CCCC2,inconclusive: 0.622% [signal inhibitor],–
CCCC(=O)Nc1cccc(NC(=O)c2ccc3c(c2)OCCO3)c1,inconclusive: 14.7% [signal inhibitor],–
Cc1ccc(S(=O)(=O)Nc2nc3n(n2)C(c2ccc(F)cc2)C=C(c2ccccc2)N3)cc1 (stereo unspecified),inconclusive: -0.58% [signal inhibitor],–

SMILES,IkBa stabilization activation,Potency
CC1=C(C(=O)Nc2ccc(Cl)cc2)C(CC(C)C)n2nc(SCc3ccccc3C)nc2N1 (stereo unspecified),inconclusive: 5.73% [signal inhibitor],–
N#CCSc1nnc2c(Cl)cc(Cl)cn12,inactive: -0.0425%,–
CCCCOc1cccc(C(=O)N(Cc2ccc(C)o2)c2ccccn2)c1,inconclusive: 1.15% [signal inhibitor],–
CCOc1ccc(CCNC(=O)c2cnc3sc(N4CCCC4)nn3c2=O)cc1,inconclusive: 1.43% [signal inhibitor],–
CCOC(=O)Cn1c(=O)oc2cc(S(=O)(=O)NCC3CCCO3)ccc21 (stereo unspecified),inconclusive: 15.4% [signal inhibitor],–
CCOC(=O)Cc1csc(NC(=O)c2cccs2)n1,–,"inconclusive: 31.6 µM [signal inhibitor, partial curve]"
Cc1onc(-c2c(F)cccc2Cl)c1C(=O)OCn1nnc2ccccc2c1=O,inconclusive: 10.1% [signal inhibitor],–
CCNc1ncc2nc(-c3ccc(OC)cc3)c(=O)n(Cc3cccc(OC)c3)c2n1,"inactive: 0.86% [at 11.4 µM, scaled: untreated 0%, proteasome inhibitor 100%]",–
COc1ccc(NS(=O)(=O)c2ccc3[nH]c4c(c3c2)CCCC4)cc1OC,inconclusive: 1.53% [signal inhibitor],–
Cc1cc(N)c(NC2=CC(=O)CC(C)(C)C2)cc1C,inconclusive: 3.06% [signal inhibitor],–
CCn1c(CN2CCCCC2)nc2cc(NC(=O)c3cc(OC)c(OC)c(OC)c3)ccc21,inconclusive: 2.14% [signal inhibitor],–
Cc1ccc2nc(N/N=C\c3cccc(C)n3)cc(C)c2c1,"inactive: -0.357% [at 11.4 µM, scaled: untreated 0%, proteasome inhibitor 100%]",–
CC1N=C2c3ccccc3N=C(SCC(=O)NCCc3ccccc3)N2C1=O (stereo unspecified),inactive: -0.27%,–
COc1ccc(Nc2c3c(nc4ccc(NC(=O)c5ccc(F)cc5)cc24)CCCC3)cc1OC,inconclusive: 1.07% [signal inhibitor],–
Cc1cc(OCCCn2ccnc2)cc(C)c1Cl,inactive: -0.324%,–
Cc1ccc(Cl)cc1N1CCN(CCCNC(=O)c2ccc3nc(N4CCCCC4)sc3c2)CC1,inconclusive: 0.432% [signal inhibitor],–
O=C(CSc1cccc2cccnc12)N1CCCC1,–,active: 3.98 µM
O=C(NC1(C(F)(F)F)NC(=O)N(CCc2ccccc2)C1=O)c1ccc(Cl)cc1 (stereo unspecified),inconclusive: -1.33% [signal inhibitor],–
Oc1c(C(c2ccccc2)N2CCC(O)CC2)sc2nc(-c3ccco3)nn12 (stereo unspecified),inactive: 3.15%,–
CCOc1ccccc1CNc1nc2nc(C)cc(C)n2n1,inconclusive: 0.27% [signal inhibitor],–
O=C(NCCCN1CCN(c2ccccc2)CC1)c1ccc2nc(Cc3ccccc3)oc2c1,inconclusive: 0.685% [signal inhibitor],–
COc1ccc(-c2nc3cnc(OC)nc3n(-c3ccc(OC)cc3)c2=O)cc1,"inactive: 3.16% [at 11.4 µM, scaled: untreated 0%, proteasome inhibitor 100%]",–
